Reference: PubChem BioAssay AID463173 (ICCB-Longwood Screening Facility, Harvard Medical School, 2010)
About 4,300 (8.3%) of roughly 52,000 compounds were called active. Cut-off read from the data, not from the text of the source: active = survival mostly below about 52% (no sharp cut-off); inactive = mostly above about 56%. The list shows a part of the results.

What follows are molecules tested on DeltatarO mutant (assay: growth inhibition of S. aureus wild type versus tarO mutant, primary screen, teichoic acid synthesis inhibitors, RN4220, OD600 (AID 463173)). Conditions: OD600, 18 h, hits give low values, screened at 18.75 µg/mL (by protocol).

For `CCNc1nc(SCC(=O)OC)nc(N(C)C)n1`, which survival is on record?
Its survival is inactive: 68%.

How did the survival turn out when `CC(=O)c1cccc(NC(=O)C2=CC(c3ccc(F)cc3)=NS(=O)(=O)N2C)c1` was run?
The survival was inactive: 76%.

With `CCCCN(C(=O)Nc1ccc(Cl)cc1)C1CCN(C(C)=O)CC1` as the molecule, how does the survival read?
Its survival is inactive: 75%.

Which survival does the source give for `CC(=O)N1CC=C2C(C#N)=C(N)C(C#N)(C#N)C(CCc3ccccc3)C2C1` (configuration not stated) here?
Its survival is inactive: 115%.

How did the survival turn out when `CCc1cccc(CC)c1N(COC)C(=O)Cn1c(CC)nc2ccccc21` was run?
The survival was inactive: 69%.

How did the survival turn out when `Cc1ccc(C)c(NC(=O)CCS(=O)(=O)c2cccc3nsnc23)c1` was run?
The survival was inactive: 120%.

With `Cn1c(=O)oc2cc(S(=O)(=O)N3CCCC(C(=O)N4CCN(c5ccc(Cl)cc5)CC4)C3)ccc21` (configuration not stated) as the molecule, how does the survival read?
The survival was inactive: 49%.

How did the survival turn out when `CCc1ccc2nc(N3CCN(C(=O)c4ccccc4)CC3)sc2c1` was run?
The survival was inactive: 92%.

With `Cc1ccc(C)c(N2CCN(C(=O)C3CCN(S(=O)(=O)c4ccc5[nH]c(=O)oc5c4)CC3)CC2)c1` as the molecule, how does the survival read?
The survival was inactive: 74%.

`CCOc1cc(C2C(C(=O)Nc3ccccc3)=C(C)Nc3ncnn32)cc(Br)c1O` (configuration not stated) was tested. Which survival did it give?
The survival was inactive: 102%.

How did the survival turn out when `CCC(C)NC(=O)C1CCN(S(=O)(=O)c2ccc(-n3cnnn3)cc2)CC1` (configuration not stated) was run?
Its survival is inactive: 91%.

`Cc1cc2c(cc1S(=O)(=O)N(CCO)Cc1ccccc1)OCC(=O)N2` was tested. Which survival did it give?
The survival was active: 46%.

Which survival does the source give for `Cc1ccc2cc(C#N)c(SCC(=O)NCc3ccco3)nc2c1` here?
Its survival is inactive: 94%.

Which survival does the source give for `CCNS(=O)(=O)c1cc(-c2nnc(Nc3cccc(C(F)(F)F)c3)c3ccccc23)ccc1C` here?
Its survival is inactive: 72%.

Which survival does the source give for `COc1cccc(CN(C(=O)c2oc3ccc(Br)cc3c2C)C2CCS(=O)(=O)C2)c1` (configuration not stated) here?
Its survival is active: 40%.

`CCC(=O)N1CCc2cc(Br)cc(S(=O)(=O)NCc3cccc(OC)c3)c21` was tested. Which survival did it give?
Its survival is inactive: 58%.

Which survival does the source give for `Cc1coc2cc3oc(=O)c(CCC(=O)N4CCCCC4)c(C)c3cc12` here?
The survival was inactive: 66%.

Which survival does the source give for `COC(=O)CNC(c1ccccc1)c1cc(Br)ccc1NC(=O)c1ccc(Cl)cc1` (configuration not stated) here?
Its survival is inactive: 73%.

How did the survival turn out when `Cc1nc2ccn(Cc3ccccc3)c(=O)c2cc1C(=O)Nc1ccc(F)cc1Cl` was run?
The survival was inactive: 90%.

How did the survival turn out when `CCN(CC)S(=O)(=O)c1ccc2c(c1)c(=O)c(C(=O)NCCc1ccc(OC)c(OC)c1)cn2C` was run?
The survival was inactive: 83%.

How did the survival turn out when `Cc1ccc(-n2nc3c(N4CCC(C(=O)NCCc5ccccc5)CC4)nnc(C)c3c2C)cc1` was run?
Its survival is inactive: 80%.

How did the survival turn out when `CCOc1ccc(NC(=O)Nc2cccc(C)n2)cc1` was run?
Its survival is inactive: 88%.

`COCCCN1CN=C(NS(=O)(=O)c2ccc(NC(C)=O)cc2)NC1` was tested. Which survival did it give?
The survival was inactive: 73%.

For `COc1ccc(C)cc1NC(=O)CN(C)S(=O)(=O)c1ccc2c(c1)CCCN2C(C)=O`, which survival is on record?
Its survival is inactive: 83%.

With `COc1ccc(N2Cc3cccc(C(=O)Nc4ccc(C)cc4)c3C2=O)cc1` as the molecule, how does the survival read?
The survival was inactive: 70%.

Which survival does the source give for `CCOC(=O)c1sc2ccccc2c1S(=O)(=O)N1CCN(c2ccccc2F)CC1` here?
Its survival is inactive: 96%.

With `COc1ccc(C)cc1NC(=O)CN1C(=O)CSc2ccc(S(=O)(=O)N3CCCC3)cc21` as the molecule, how does the survival read?
The survival was inactive: 89%.

How did the survival turn out when `CC1=C(c2cccc(Cl)c2)S(=O)(=O)NC1=NCc1ccccc1C` was run?
The survival was inactive: 99%.

`CCC(=O)N1CCc2cc(S(=O)(=O)N3CCN(c4ccccc4F)CC3)ccc21` was tested. Which survival did it give?
The survival was inactive: 82%.

With `COc1cc(OC)c(NC(=O)Cn2nc(C)n3cccc3c2=O)cc1Cl` as the molecule, how does the survival read?
The survival was inactive: 96%.

For `CCN(CC)C(=O)CSc1nc(-c2ccccc2)cc(-c2ccc(OC)cc2)c1C#N`, which survival is on record?
Its survival is active: 45%.

How did the survival turn out when `Cc1ccc(C)c(NC(=O)CCc2nc3cccnc3n2Cc2cccs2)c1` was run?
Its survival is inactive: 73%.

For `Cc1ccccc1-c1ccnc2c(-c3ccc(F)cc3)c(C)nn12`, which survival is on record?
The survival was active: 6%.

With `Cc1ccc(-c2cc(N)n(Cc3cccc(Cl)c3)n2)cc1` as the molecule, how does the survival read?
Its survival is active: 55%.

`COc1cccc(NC(=O)Cn2c(=O)n(-c3ccccc3)c(=O)c3c4c(sc32)CCCC4)c1` was tested. Which survival did it give?
Its survival is inactive: 90%.

For `c1ccc(C2CCC(N3CCNCC3)CC2)cc1` (configuration not stated), which survival is on record?
Its survival is inactive: 73%.

For `Cc1cc2nc(NC(=O)c3ccc(S(=O)(=O)N4CCOCC4)cc3)sc2cc1C`, which survival is on record?
The survival was inactive: 98%.

Which survival does the source give for `COc1ccccc1-c1noc(-c2ccc(NCc3ccccc3)c([N+](=O)[O-])c2)n1` here?
Its survival is active: 35%.

How did the survival turn out when `COc1ccc(C2Nc3ccccc3-n3c(-c4ccccc4)c4c(=O)n(C)c(=O)n(C)c4c32)cc1` (configuration not stated) was run?
Its survival is inactive: 79%.

With `CCN(CC)C(=O)Cn1ncc2c([nH]c3ccc(C)cc32)c1=O` as the molecule, how does the survival read?
The survival was inactive: 90%.

How did the survival turn out when `COc1ccc(NC(=O)c2ccc3c(c2)N(Cc2cccc(Cl)c2)C(=O)c2ccccc2S3(=O)=O)cc1Cl` was run?
Its survival is inactive: 88%.

`CCOc1ccccc1CNC(=O)C1CCN(C(=O)N2CCOc3ccc(Cl)cc32)CC1` was tested. Which survival did it give?
Its survival is inactive: 52%.

`NC(=O)CN1C(=O)C(O)(CC(=O)/C=C\c2ccccc2)c2ccccc21` (configuration not stated) was tested. Which survival did it give?
The survival was inactive: 96%.

`Cc1ccc(-n2nc(C(=O)NCc3ccc(F)cc3Cl)c3c4ccccc4n(C)c3c2=O)cc1` was tested. Which survival did it give?
Its survival is inactive: 131%.

How did the survival turn out when `COC(=O)c1ccc(Nc2nc(-c3ccc(C)cc3)nc3ccccc23)cc1` was run?
Its survival is active: 9%.

`COc1ccc(-c2cn3nc(N4CCC(C(=O)NCc5cccc(Cl)c5)CC4)sc3n2)cc1` was tested. Which survival did it give?
Its survival is inactive: 112%.

How did the survival turn out when `COc1cc(-c2noc(-c3ccc(N4CCCC4)c([N+](=O)[O-])c3)n2)cc(OC)c1OC` was run?
Its survival is inactive: 72%.

How did the survival turn out when `CC(=O)N1CCc2c(sc3c2c(=O)n(Cc2ccccc2)c(=O)n3Cc2cccc(Cl)c2)C1` was run?
Its survival is inactive: 102%.

For `Cc1ccccc1Cn1cnc2c(oc3ccccc32)c1=O`, which survival is on record?
Its survival is inactive: 75%.

How did the survival turn out when `CCC(=O)N1CCc2cc(CNC(=O)Cc3ccc(OC)c(OC)c3)ccc21` was run?
The survival was inactive: 72%.

With `COc1cc(C(=O)N2CCc3c([nH]c4ccccc34)C2c2ccc(F)cc2)cc(OC)c1OC` (configuration not stated) as the molecule, how does the survival read?
Its survival is inactive: 113%.

With `CC(=O)Nc1ccc(NC(=O)Cn2cc3c(n2)CCCCC3)cc1` as the molecule, how does the survival read?
Its survival is inactive: 117%.

For `CC(CC(=O)Nc1ccccc1)c1ccccc1` (configuration not stated), which survival is on record?
Its survival is inactive: 108%.

`Cc1ccc2c(CC(=O)N3CCN(c4cccc(Cl)c4)CC3)coc2c1C` was tested. Which survival did it give?
Its survival is inactive: 74%.

Which survival does the source give for `COC(=O)CN1C(=O)CSc2ccc(S(=O)(=O)Nc3ccccc3)cc21` here?
The survival was inactive: 91%.

Which survival does the source give for `Cc1cccc(OCCSc2nc3ccc(NC(=O)COc4ccccc4C)cc3s2)c1` here?
Its survival is inactive: 63%.

Which survival does the source give for `Cc1cn2c(=O)cc(COC(=O)c3cccc(NC(=O)COc4ccccc4)c3)nc2s1` here?
The survival was inactive: 60%.
